# Reference: US9205064B2, “Methods for the diagnosis of oncological disorders using epimetabolic shifters, multidimensional intracellular molecules, or environmental influencers” (Berg LLC, priority 2009, dated 2015)
# How the values were obtained:
# Assay type in all cases: cell-based
# [1] = system: SK-MEL-28 cells; assay: Real-time PCR Apoptosis Array; settings: 100 μM
# Description: (§1) The formulation of the Q10 was as follows. […] The resulting solution was warmed in a 65° C. water bath and vortexed at high speed. […] For the control vehicle, 9.5 mL of media was added to 500 μL of isopropanol. The control stock was further diluted (2 mL of stock) with 8 mL of media.
# (§2) RNA was quantified by measuring Optical Density at 260 nm.
# (§3) (SABiosciences, Frederick, Md.).
# A vehicle was prepared in parallel with a similar protocol except that the Coenzyme Q10 was not added.
# Changes in mRNA levels were evaluated using real-time PCR quantification to assess mRNA levels in pre-selected subsets containing […] pathway specific targets.
# For the interpretation of mRNA results, the genes that were altered in their mRNA transcription by a two-fold level were identified and evaluated. The level of gene transcription to produce mRNA only provides a rough estimate of potential changes in the level of the expressed protein. The skilled artisan will appreciate that each mRNA may have different rates at which it is degraded or its translation inefficiently, thus resulting in differing amounts of protein.
# [2] = system: SK-MEL-28 cells; assay: Real-time PCR Oxidative Stress and Antioxidant Defense Array
# Description: The resulting solution was warmed in a 65° C. water bath and vortexed at high speed. […] For the control vehicle, 9.5 mL of media was added to 500 μL of isopropanol. The control stock was further diluted (2 mL of stock) with 8 mL of media. […] RNA was quantified by measuring Optical Density at 260 nm. […] Experimental details: […] (SABiosciences, Frederick, Md.). […] Results are given only for those genes that are regulated in two independent experiments. […] Further experiments were carried out using SKMEL-28 cells. […] The PCR array (SABiosciences) is a set of optimized real-time PCR primer assays on 96-well plates for pathway or disease focused genes as well as appropriate RNA quality controls. The PCR array performs gene expression analysis with real-time PCR sensitivity and the multi-gene profiling capability of a microarray.
# [3] = system: SK-MEL-28 cells; assay: Real-time PCR Diabetes Array; settings: 100 μM Q10, at 48 hours
# Description: as §1, §2, §3
# [4] = system: SK-MEL-28 cells; assay: Antibody microarray (Panorama XP725 Antibody Array)
structure (smiles),measurement,setting,value
"COC1=C(OC)C(=O)C(C/C=C(\C)CC/C=C(\C)CC/C=C(\C)CC/C=C(\C)CC/C=C(\C)CC/C=C(\C)CC/C=C(\C)CC/C=C(\C)CC/C=C(\C)CCC=C(C)C)=C(C)C1=O [Q10, Coenzyme Q10]",ABL1 change in mRNA level,[1]; 6 hr Q10,1.42
same,B2M change in mRNA level,[1]; 6 hr Q10,1.74
same,BAG1 change in mRNA level,[1]; 6 hr Q10,1.41
same,BAK1 change in mRNA level,[1]; 6 hr Q10,1.06
same,BCL2L1 change in mRNA level,[1]; 6 hr Q10,−4.94
same,BCL2L11 change in mRNA level,[1]; 6 hr Q10,2.13
same,BCL2 change in mRNA level,[1]; 6 hr Q10,−2.98
same,BCL10 change in mRNA level,[1]; 6 hr Q10,1.55
same,BIRC3 change in mRNA level,[1]; 6 hr Q10,−13.68
same,BNIP2 change in mRNA level,[1]; 6 hr Q10,1.46
same,CASP9 change in mRNA level,[1]; 6 hr Q10,1.32
same,CD27 change in mRNA level,[1]; 6 hr Q10,−3.40
same,CIDEB change in mRNA level,[1]; 6 hr Q10,−3.48
same,GADD45A change in mRNA level,[1]; 6 hr Q10,1.07
same,HRK change in mRNA level,[1]; 6 hr Q10,1.18
same,IGF1R change in mRNA level,[1]; 6 hr Q10,1.77
same,TNFRSF1A change in mRNA level,[1]; 6 hr Q10,−4.53
same,TNFRSF10B change in mRNA level,[1]; 6 hr Q10,−2.07
same,TP73 change in mRNA level,[1]; 6 hr Q10,−4.66
same,B2M change in mRNA level,[1]; 16 hr Q10,1.76
same,BAG1 change in mRNA level,[1]; 16 hr Q10,1.44
same,BAK1 change in mRNA level,[1]; 16 hr Q10,2.73
same,BCL2L1 change in mRNA level,[1]; 16 hr Q10,−1.80
same,BCL2L11 change in mRNA level,[1]; 16 hr Q10,2.41
same,BCL2 change in mRNA level,[1]; 16 hr Q10,−1.63
same,BCL10 change in mRNA level,[1]; 16 hr Q10,1.87
same,BIRC3 change in mRNA level,[1]; 16 hr Q10,−1.98
same,BNIP2 change in mRNA level,[1]; 16 hr Q10,1.51
same,CASP9 change in mRNA level,[1]; 16 hr Q10,3.96
same,CD27 change in mRNA level,[1]; 16 hr Q10,−2.38
same,CIDEB change in mRNA level,[1]; 16 hr Q10,1.56
same,GADD45A change in mRNA level,[1]; 16 hr Q10,3.34
same,HRK change in mRNA level,[1]; 16 hr Q10,4.52
same,IGF1R change in mRNA level,[1]; 16 hr Q10,1.09
same,TNFRSF1A change in mRNA level,[1]; 16 hr Q10,2.28
same,TNFRSF10A change in mRNA level,[1]; 16 hr Q10,−5.26
same,TNFRSF10B change in mRNA level,[1]; 16 hr Q10,1.53
same,TP73 change in mRNA level,[1]; 16 hr Q10,−9.80
same,TRAF4 change in mRNA level,[1]; 16 hr Q10,2.63
same,ABL1 change in mRNA level,[1]; 24 hr Q10,−1.22
same,B2M change in mRNA level,[1]; 24 hr Q10,1.58
same,BAG1 change in mRNA level,[1]; 24 hr Q10,−1.61
same,BAK1 change in mRNA level,[1]; 24 hr Q10,−1.00
same,BCL2L1 change in mRNA level,[1]; 24 hr Q10,−6.17
same,BCL2L11 change in mRNA level,[1]; 24 hr Q10,1.92
same,BCL2 change in mRNA level,[1]; 24 hr Q10,−2.82
same,BCL10 change in mRNA level,[1]; 24 hr Q10,1.48
same,BIRC3 change in mRNA level,[1]; 24 hr Q10,−2.42
same,BNIP2 change in mRNA level,[1]; 24 hr Q10,1.57
same,CASP9 change in mRNA level,[1]; 24 hr Q10,1.83
same,CD27 change in mRNA level,[1]; 24 hr Q10,−1.35
same,CIDEB change in mRNA level,[1]; 24 hr Q10,−3.69
same,GADD45A change in mRNA level,[1]; 24 hr Q10,1.13
same,HRK change in mRNA level,[1]; 24 hr Q10,2.73
same,IGF1R change in mRNA level,[1]; 24 hr Q10,1.33
same,TNFRSF10A change in mRNA level,[1]; 24 hr Q10,−4.33
same,TNFRSF10B change in mRNA level,[1]; 24 hr Q10,−1.81
same,TP73 change in mRNA level,[1]; 24 hr Q10,−8.71
same,TRAF4 change in mRNA level,[1]; 24 hr Q10,−1.58
same,ABL1 change in mRNA level,[1]; 72 hr Q10,−2.03
same,BAG1 change in mRNA level,[1]; 72 hr Q10,−2.45
same,BAK1 change in mRNA level,[1]; 72 hr Q10,−4.54
same,BCL2L1 change in mRNA level,[1]; 72 hr Q10,−7.04
same,BCL2L11 change in mRNA level,[1]; 72 hr Q10,2.51
same,BCL2 change in mRNA level,[1]; 72 hr Q10,−11.36
same,BCL10 change in mRNA level,[1]; 72 hr Q10,−3.11
same,BIRC3 change in mRNA level,[1]; 72 hr Q10,−3.42
same,BNIP2 change in mRNA level,[1]; 72 hr Q10,−1.61
same,CASP9 change in mRNA level,[1]; 72 hr Q10,1.14
same,CD27 change in mRNA level,[1]; 72 hr Q10,−12.72
same,CIDEB change in mRNA level,[1]; 72 hr Q10,−2.59
same,GADD45A change in mRNA level,[1]; 72 hr Q10,−2.36
same,HRK change in mRNA level,[1]; 72 hr Q10,−1.14
same,IGF1R change in mRNA level,[1]; 72 hr Q10,1.25
same,TNFRSF10A change in mRNA level,[1]; 72 hr Q10,−11.84
same,TNFRSF10B change in mRNA level,[1]; 72 hr Q10,−710.49
same,TP73 change in mRNA level,[1]; 72 hr Q10,−26.96
same,TRAF4 change in mRNA level,[1]; 72 hr Q10,−740.66
same,NOX5 (NADPH oxidase) mRNA,[2]; 100 μM Q10,levels do not change
same,Neutrophil cytosolic factor 1 (NCF1) mRNA,"[2]; 100 μM Q10, 16 hour time point and onward",induced at very high levels
same,DHCR24 mRNA Regulation,"[2]; 100 μM Q10, at 6 hours",Down Regulation
same,GTF2I mRNA Regulation,"[2]; 100 μM Q10, at 6 hours",Down Regulation
same,MPV17 mRNA Regulation,"[2]; 100 μM Q10, at 6 hours",Down Regulation
same,PRDX2 mRNA Regulation,"[2]; 100 μM Q10, at 6 hours",Down Regulation
same,MGST3 mRNA Regulation,"[2]; 100 μM Q10, at 16 hours",Upregulation at
same,RNF7 mRNA Regulation,"[2]; 100 μM Q10, at 16 hours",Up Regulation at
same,SIRT2 mRNA Regulation,"[2]; 100 μM Q10, at 16 hours",Up regulation at
same,SOD1 mRNA Regulation,"[2]; 100 μM Q10, at 16 hours",Up Regulation at
same,SOD2 mRNA Regulation,"[2]; 100 μM Q10, at 16 hours",Up regulation at
same,Nitric oxide synthase 2A (NOS2A) mRNA,"[2]; 100 μM Q10, early",second major early induced protein
same,AOX1 mRNA Regulation,"[2]; 100 μM Q10, from 16 hours",Up regulation
same,PRDX4 mRNA Regulation,"[2]; 100 μM Q10, from 24 hours",Down Regulation
same,Neutrophil cytosolic factor 2 (NCF2) mRNA,"[2]; 100 μM Q10, observed at 6 hours",one of the initial top induced mRNA's
same,NCF1 mRNA level change,"[2]; 100 μM, 16 hr",high
same,CEBPA Regulation,[3],Up regulated at
same,TNF Regulation,[3],Up regulated at
same,"protein levels of Bcl-xl, Bmf, BTK, BLK, cJun (pSer63), Connexin 32, PUMA bbc3, BID, Par4, cCbl","[4]; 50 μM Q10, 24 hr",altered levels
same,cerbB3 protein level Ratio,"[4]; 50 μM, 24 hour",2.0
same,BID protein level Ratio,"[4]; 50 μM, 24 hour, second BID entry",2.0
